Values joined by “and” are separate entries in the source; they are usually repeats but may differ in a detail not shown here. Equal values may be shown once. This list was built around the results that the source calls inconclusive (neither active nor inactive); the mix of calls is not that of the screen. No potency is given beside an inconclusive call; the fits are too rough. Active and inactive are the calls of the source. Unless noted, calls come from the whole dose curve; as a rule, active = well fitted cell-killing curve with a large enough effect in the repeat runs; inconclusive = weak or mixed curves, or effect the other way; inactive = no such curve, though single readings can be large or run the other way.
Biological target: Bile acid receptor (Homo sapiens) (UniProt Q96RI1)
Sequence of UniProt Q96RI1 (Q96RI1 whole entry, looked up): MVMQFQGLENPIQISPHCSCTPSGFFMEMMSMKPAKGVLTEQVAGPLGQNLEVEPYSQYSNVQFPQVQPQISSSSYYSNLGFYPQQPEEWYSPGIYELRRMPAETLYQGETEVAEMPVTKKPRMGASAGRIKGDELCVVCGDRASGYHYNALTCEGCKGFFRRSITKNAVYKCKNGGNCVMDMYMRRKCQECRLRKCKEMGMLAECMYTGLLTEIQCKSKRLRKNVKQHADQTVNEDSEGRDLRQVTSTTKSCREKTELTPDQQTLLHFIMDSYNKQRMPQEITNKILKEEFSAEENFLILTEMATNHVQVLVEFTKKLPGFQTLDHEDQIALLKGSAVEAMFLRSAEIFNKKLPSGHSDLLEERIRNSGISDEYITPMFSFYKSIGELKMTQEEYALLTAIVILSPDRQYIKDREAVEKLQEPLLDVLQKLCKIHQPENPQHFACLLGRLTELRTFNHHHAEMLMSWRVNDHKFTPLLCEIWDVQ
Assay: qHTS assay to identify small molecule antagonists of the farnesoid-X-receptor (FXR) signaling pathway (AID 743217; active = well fitted inhibition curve with a large enough effect in the signal ratio in the repeat runs, not every such curve was filed as active; inconclusive = weak or mixed curves, or effect the other way; inactive = no such curve, though single readings can be large or run the other way; the % refers to the signal ratio)
Conditions: HEK293T FXR-UAS-bla, beta-lactamase ratio, CDCA-stimulated, 16 h; activity change, negative = inhibition: at 62.6 µM (top of the series) unless noted
How it was run: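 GeneBLAzer FXR-UAS-bla HEK 293T, CDCA-stimulated (50 uM final). Compound treatment 16 h, 37 °C. Detection: beta-lactamase cleavage of B/G FRET substrate, fluorescence.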
% is set by controls: 0 for no effect and ±100 for the full control effect; potency is the fitted concentration of half-maximal effect; tags give direction and shape of the fitted curve or compound fluorescence and quenching.

Compound | activity change, negative = inhibition | Potency
CCc1cccc(C)c1 | inactive: -4.4% [at 81.1 µM] | 
Cc1cc(NS(=O)(=O)c2ccc(N)cc2)no1 |  | inconclusive [inhibitor, single point]
CCCCC=O | inconclusive: 0.122% | 

Tested on: not listed separately
Assay: qHTS assay to identify small molecule agonists of the farnesoid-X-receptor (FXR) signaling pathway - cell viability counter screen (AID 743218); note: nearly all actives have a fitted effect of over 45% in size
Conditions: FXR-bla HEK293T viability, CellTiter-Glo luminescence, 16 h; viability change, negative = cytotoxic: at 62.6 µM (top of the series) unless noted
How it was run: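 Parallel cytotoxicity test: compound-treated (16 h, 37 C) HEK 293T FXR-bla reporter cells were lysed with CellTiter-Glo and luminescence recorded.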

Compound | viability change, negative = cytotoxic | Potency
CCc1cccc(C)c1 | inactive: -27.2% [at 81.1 µM] | 
COC(=O)c1c(C)cc(O)c(C)c1O | inactive: 3.86% | 
CCCCCCCCCCCCOC(C)=O | inactive: 2.19% | 
O[C@@H]1CO[C@H]2[C@@H]1OC[C@@H]2O | inactive: 1.23% | 
CCCCCCCCCCCCCCCC(=O)OC | inactive: -8.39% [at 29.1 µM] | 
O=C(O)CCNC(=O)c1ccccc1 | inactive: -3.86% | 
Cc1ccc(S(=O)(=O)O)cc1 |  | inconclusive [rising, partial curve, poor fit]
OC1CCCC1 |  | inconclusive [rising, full curve, poor fit]
CC(C)(C)c1ccc(CCC=O)cc1 |  | inconclusive [rising, full curve, poor fit]
Cc1ncc(CO)c(CO)c1O |  | inconclusive [cytotoxic, partial curve, poor fit]
CCCCC=O | inactive: -15.1% | 
Brc1cc2ccccc2c2ccccc12 | inactive: 0% [at 81.1 µM] | 

Tested on: not listed separately
Assay: qHTS assay to identify small molecule antagonists of the farnesoid-X-receptor (FXR) signaling pathway - cell viability counter screen (AID 743221; active = well fitted cell-killing curve with a large enough effect in the repeat runs, not every such curve was filed as active; inconclusive = weak or mixed curves, or effect the other way; inactive = no such curve, though single readings can be large or run the other way; note: nearly all actives have a fitted effect of over 50% in size)
Conditions: FXR-bla HEK293T viability, CellTiter-Glo luminescence, 16 h; activity change, negative = cytotoxicity: at 62.6 µM (top of the series) unless noted
How it was run: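 Luminescence from CellTiter-Glo measures cytotoxicity in GeneBLAzer FXR-UAS-bla HEK 293T cells. Cells were exposed to compounds with 50 uM chenodeoxycholic acid (final) for 16 h at 37 C, in wells also used for the reporter readout.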

Compound | Potency | activity change, negative = cytotoxicity
CC1(C)[C@@H](O[C@H]2O[C@H](C(=O)O)[C@@H](O)[C@H](O)[C@H]2O[C@@H]2O[C@H](C(=O)O)[C@@H](O)[C@H](O)[C@H]2O)CC[C@]2(C)[C@H]3C(=O)C=C4[C@@H]5C[C@@](C)(C(=O)O)CC[C@]5(C)CC[C@@]4(C)[C@]3(C)CC[C@@H]12 | inconclusive [falling, full curve, poor fit] | 
CCOC(=O)NNc1ccc(N(CC)CC(C)O)nn1 (centres undefined) |  | inactive: -0.191%
O[C@@H]1CO[C@H]2[C@@H]1OC[C@@H]2O |  | inactive: -0.389%
CC1OCCC1=O (centres undefined) | inconclusive [falling, full curve, poor fit] | 
FC(F)(F)c1cccc(Cl)c1 |  | inactive: 10.1%
C[C@@H]1C[C@H]2[C@@H]3C[C@H](F)C4=CC(=O)C=C[C@]4(C)[C@@]3(F)[C@@H](O)C[C@]2(C)[C@@]1(O)C(=O)CO |  | inactive: 13.6%

Biological target: Vitamin D3 receptor (Homo sapiens) (UniProt P11473)
Sequence of UniProt P11473 (P11473 whole entry, looked up): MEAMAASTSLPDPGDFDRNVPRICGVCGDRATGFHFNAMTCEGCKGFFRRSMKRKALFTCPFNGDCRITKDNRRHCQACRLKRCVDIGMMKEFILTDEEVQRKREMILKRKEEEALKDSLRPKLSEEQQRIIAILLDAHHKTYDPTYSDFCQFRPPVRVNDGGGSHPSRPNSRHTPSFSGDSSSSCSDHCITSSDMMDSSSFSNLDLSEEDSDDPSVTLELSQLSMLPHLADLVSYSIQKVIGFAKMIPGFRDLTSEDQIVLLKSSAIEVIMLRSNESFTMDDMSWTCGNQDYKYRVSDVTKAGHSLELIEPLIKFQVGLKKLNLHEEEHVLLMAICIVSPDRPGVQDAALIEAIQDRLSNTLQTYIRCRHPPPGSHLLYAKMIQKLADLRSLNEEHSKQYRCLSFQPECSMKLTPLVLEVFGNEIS
Assay: qHTS assay to identify small molecule agonists of the vitamin D receptor (VDR) signaling pathway (AID 743222; calls by dose curve)
Conditions: HEK293T VDR-UAS-bla, beta-lactamase FRET ratio, 16 h; activation: at 63.5 µM (top of the series) unless noted
How it was run: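 In VDR-bla cells, compound-induced beta-lactamase expression is quantified by FRET substrate fluorescence. Treatment lasts 16 h at 37C; substrate develops 2 h at room temperature.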

Compound | Potency | activation
CCCCCCCCCCCCOC(C)=O | inconclusive [rising, partial curve, poor fit] | 
O=C(OCC(COC(=O)c1cccnc1)(COC(=O)c1cccnc1)COC(=O)c1cccnc1)c1cccnc1 | inconclusive [rising, single point] | 
CCOC(=O)NNc1ccc(N(CC)CC(C)O)nn1 (centres undefined) | inconclusive | 
Cc1ncc(CO)c(CO)c1O |  | inconclusive: 16.3% and inconclusive: 6.11%

Biological target: Vitamin D3 receptor (Homo sapiens) (UniProt P11473)
Assay: qHTS assay to identify small molecule antagonists of the vitamin D receptor (VDR) signaling pathway (AID 743223; active = well fitted inhibition curve with a large enough effect in the signal ratio in the repeat runs, not every such curve was filed as active; inconclusive = weak or mixed curves, or effect the other way; inactive = no such curve, though single readings can be large or run the other way; the % refers to the signal ratio)
Conditions: VDR-UAS-bla HEK293T, beta-lactamase FRET ratio, 16 h; activity change, negative = inhibition: at 61 µM (top of the series) unless noted
How it was run: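 Antagonist mode uses 1alpha,25-dihydroxyvitamin D3 at 3 nM final as stimulus. VDR-bla cells receive compounds in DMSO, incubate 16 h at 37C, then a beta-lactamase FRET substrate for 2 h at room temperature before fluorescence measurement.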

Compound | activity change, negative = inhibition | Potency
CC1(C)[C@@H](O[C@H]2O[C@H](C(=O)O)[C@@H](O)[C@H](O)[C@H]2O[C@@H]2O[C@H](C(=O)O)[C@@H](O)[C@H](O)[C@H]2O)CC[C@]2(C)[C@H]3C(=O)C=C4[C@@H]5C[C@@](C)(C(=O)O)CC[C@]5(C)CC[C@@]4(C)[C@]3(C)CC[C@@H]12 | inconclusive: -0.39% | 
CCNc1nc(N)nc(Cl)n1 | inconclusive: 37.9% | 
CCNC(=O)NCc1cccc(Cl)c1 | inactive: -6.67% | 
CCOC(=O)NNc1ccc(N(CC)CC(C)O)nn1 (centres undefined) | inactive: 1.75% | 
CCCCCCCCCCCCCCC | inconclusive: 14.9% | 
OCC(CO)(CO)CO |  | inconclusive [activator, single point]
OCCOCCOCCOCCOCCO | inconclusive: 8.73% | 
N#CCc1ccc(Cl)cc1Cl | inconclusive: 3.04% | 
CC(C)(C)c1ccc(CCC=O)cc1 | inconclusive: -0.0618% | 
COc1c(Br)cc(Br)c(C)c1Br | inconclusive: 3.51% | 
OC(CCN1CCCC1)(c1ccccc1)C1CCCCC1 (centres undefined) | inactive: -11.5% | 
C/C=C(\C)C(=O)OC/C=C(\C)CCC=C(C)C | inactive: -4.08% | 
CCCCCCCC/C=C\CCCCCCCCO | inactive: -0.921% | 

Tested on: not listed separately
Assay: qHTS assay to identify small molecule agonists of the vitamin D receptor (VDR) signaling pathway - cell viability counter screen (AID 743224); note: nearly all actives have a fitted effect of over 50% in size
Conditions: VDR-bla HEK293T viability, CellTiter-Glo luminescence, 16 h; activity change, negative = cytotoxicity: at 62.6 µM (top of the series)
How it was run: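 Plated VDR-bla cells (4 h, 37C) received compound, incubated 16 h, then LiveBLAzer substrate 2 h RT; CellTiter-Glo added afterwards, luminescence read at 30 min.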

Compound | Potency | activity change, negative = cytotoxicity
CC1(C)[C@@H](O[C@H]2O[C@H](C(=O)O)[C@@H](O)[C@H](O)[C@H]2O[C@@H]2O[C@H](C(=O)O)[C@@H](O)[C@H](O)[C@H]2O)CC[C@]2(C)[C@H]3C(=O)C=C4[C@@H]5C[C@@](C)(C(=O)O)CC[C@]5(C)CC[C@@]4(C)[C@]3(C)CC[C@@H]12 | inconclusive [cytotoxic, partial curve, poor fit] | 
CCOCCOCCO | inconclusive [rising, partial curve, poor fit] | 
COC(=O)c1c(C)cc(O)c(C)c1O |  | inactive: -4.84%
CCCCCCCCCCCCCCCC(=O)OC |  | inactive: 1.92% [at 29.1 µM]
O |  | inconclusive: -35.9% [cytotoxic]
CCCCCCOC(=O)CCCCC |  | inactive: 8.18%
